From the supplement of paper PMC3334620
Over roughly 33,000 sequences, “E-score (-0.5 to 0.5)” has its median near -0.032; the highest 2% begin near 0.36. The list shows a part of the results.

Target: T1, Sko1 (UniProt Q02100)
T1 sequence: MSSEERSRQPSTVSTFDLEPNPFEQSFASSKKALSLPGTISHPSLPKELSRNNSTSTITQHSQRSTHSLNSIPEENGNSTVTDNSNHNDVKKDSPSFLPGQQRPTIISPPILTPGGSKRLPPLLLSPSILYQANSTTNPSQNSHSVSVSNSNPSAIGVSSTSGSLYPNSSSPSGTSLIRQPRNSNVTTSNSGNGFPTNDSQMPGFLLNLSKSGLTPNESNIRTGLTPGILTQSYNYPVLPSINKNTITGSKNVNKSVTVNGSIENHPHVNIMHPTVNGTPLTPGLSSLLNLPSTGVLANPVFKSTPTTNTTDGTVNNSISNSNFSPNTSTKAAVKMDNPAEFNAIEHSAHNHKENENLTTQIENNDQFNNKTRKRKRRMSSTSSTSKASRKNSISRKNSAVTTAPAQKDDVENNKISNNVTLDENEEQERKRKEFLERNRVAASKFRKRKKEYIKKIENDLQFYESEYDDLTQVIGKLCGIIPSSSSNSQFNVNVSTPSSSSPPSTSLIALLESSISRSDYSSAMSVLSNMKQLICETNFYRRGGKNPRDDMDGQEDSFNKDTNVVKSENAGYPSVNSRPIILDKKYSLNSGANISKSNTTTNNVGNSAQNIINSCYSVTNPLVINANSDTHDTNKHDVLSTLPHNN
Experiment: PBM E-score (8-mer binding enrichment) (E-score (-0.5 to 0.5)); higher = stronger / more preferred TF binding; most listed sequences are background and not binding sites
Conditions: protein concentration: 200 nM; construct: GST-full length
Method in brief: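 Bound GST-tagged yeast transcription factors, applied at about 100-200 nM to double-stranded universal all-10-mer Agilent arrays, were detected with fluorescent anti-GST. Scans were normalised with masliner. A modified Wilcoxon-Mann-Whitney statistic, the E-score, was assigned to each ungapped eight-base word pooled with its reverse complement by the Universal PBM Analysis Suite.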

Row | Sequence | PBM E-score
1 | AGGATCTA | -0.208
2 | GGAAAAGA | -0.0129
3 | ATTACGGA | 0.287
4 | GGCCGCAC | -0.311
5 | AATCCCGT | 0.146
6 | GATGTAAA | 0.177
7 | TCGTAACA | 0.275
8 | GCCGCGCA | -0.219
9 | ACTCAGGA | -0.0343
10 | AAAACGTG | 0.304
11 | AAGATCGG | -0.235
12 | GCGGTAAC | -0.122
13 | CTCCTTGC | -0.141
14 | GGCCGAAA | 0.00137
15 | AACGAAGA | 0.0654
16 | AAACGGTC | -0.0837
17 | CCTATGGC | -0.343
18 | AGAATGGG | -0.238
19 | GGCAGTGA | -0.125
20 | ACTTTCGA | 0.0607
21 | GCGTACGC | 0.269
22 | AAAAGTTA | 0.298
23 | AATCGGCA | 0.0691
24 | CAAAAGAG | -0.00659
25 | CTCACTGA | -0.0558

Row | Sequence | PBM E-score
26 | GGGCAGAC | -0.242
27 | CACCGGCC | -0.179
28 | CGATGGAC | -0.0164
29 | AATTCAAC | 0.138
30 | GACTACGC | 0.0875
31 | ACTATCCG | 0.12
32 | CTCCGGAA | -0.19
33 | ATATTTGG | 0.228
34 | CCTACAGG | -0.365
35 | TCTTTCCA | 0.0944
36 | CCAGCCCG | -0.421
37 | ATAACAAG | 0.079
38 | AAAGGTAA | 0.0369
39 | AACTGGCG | 0.0329
40 | CTACCTAG | -0.159
41 | AAGGTAAT | 0.1
42 | CGAGGGAC | -0.328
43 | GATGTCGA | 0.0456
44 | CTAAGCCC | -0.255
45 | TAGGAGCA | -0.0201
46 | AATATTTC | 0.191
47 | AGTTTGCG | 0.0104
48 | CGATCGTA | 0.174
49 | CTGCCCTA | -0.273
50 | AAGAATGG | -0.163

Row | Sequence | PBM E-score
51 | ATACTCCA | 0.0192
52 | CCCGGTTA | -0.26
53 | ACCCTGTG | -0.0965
54 | GCAGCCAC | -0.143
55 | CGAACTCA | -0.113
56 | CAATCTCA | 0.0473
57 | CGGCCGCA | -0.327
58 | AAACCAGT | -0.0849
59 | GCGGTTCC | -0.114
60 | AAACGCGT | 0.221
61 | AACTCCAT | -0.0023
62 | GTGATTAA | 0.263
63 | GATTCTAC | 0.0366
64 | ACGGAATC | 0.158
65 | AAAAGTCG | -0.0404
66 | GCACGACA | -0.0954
67 | TCGAGAGA | -0.162
68 | AATTGACG | 0.356
69 | CGGATACA | 0.00396
70 | CCTTAACC | -0.301
71 | CCAGAGCA | -0.186
72 | GATTAGGC | 0.0558
73 | ACGATTAC | 0.369
74 | CATGGCCA | -0.106
75 | CAGTACCA | -0.111

Row | Sequence | PBM E-score
76 | AGATCCTG | -0.126
77 | CCGCATCA | -0.0746
78 | GTTACGCA | 0.417
79 | CAGTGGAA | -0.132
80 | ATGACACA | 0.307
81 | CTTCCTCA | -0.153
82 | AATTGATA | 0.245
83 | CCCCTCTC | -0.424
84 | ATGATCGC | 0.0857
85 | AGCGGGAA | -0.0798
86 | ATTCGTAA | 0.433
87 | ATCATGTA | 0.235
88 | GATACCGC | -0.117
89 | CGTCACAA | 0.388
90 | CGAGACCA | -0.114
91 | CAGTTAGA | -0.0644
92 | AAGAACTC | 0.095
93 | GCCTGAGA | -0.241
94 | ATGTCATG | 0.403
95 | TATACACA | 0.225
96 | GCAAGCAC | -0.13
97 | TCCTATCA | -0.0566
98 | ATTCTATA | 0.183
99 | ATACGCTG | -0.0194
100 | CTAAGGTC | -0.0258

Row | Sequence | PBM E-score
101 | GGACGAGA | 0.0144
102 | CATGGGCG | -0.034
103 | CTACAAGC | -0.0402
104 | ACAAAATG | 0.206
105 | GGTAGCGA | -0.125
106 | CTCGTTCC | -0.0749
107 | GAAGAGCA | -0.108
108 | ACGCGCAC | 0.0462
109 | CTTGCTTA | -0.192
110 | ATCCACCA | -0.0843
111 | CAAGAGCA | -0.0878
112 | CCACGCAA | 0.308
113 | GAAAAGGC | -0.204
114 | TACACCGA | -0.177
115 | AACCCGGT | -0.265
116 | ATATGCCA | -0.0891
117 | TCAACAAA | 0.143
118 | AACACATA | 0.256
119 | GTGCCTGA | -0.141
120 | ACACGGTA | -0.0135
121 | ACAACGGT | -0.0571
122 | AAACGATG | 0.192
123 | ATATGGGC | -0.0462
124 | TAGCTGCA | -0.0592
125 | CCACCGAC | -0.175

Row | Sequence | PBM E-score
126 | AATCCTGC | 0.0867
127 | TACAGATA | 0.181
128 | AAAGAGAT | 0.0423
129 | AGAATGAA | 0.113
130 | TAGTTGGA | -0.0545
131 | TCGGCTAA | 0.0996
132 | AGACGGTA | -0.0761
133 | AACCCGTT | -0.139
134 | GCTCAGAC | -0.152
135 | ACTCGAGT | 0.0932
136 | CACCCAGC | -0.168
137 | AAAACGGG | 0.026
138 | AGGCAGCC | -0.208
139 | AATTGGGG | -0.167
140 | GAAGCTCA | -0.0454
141 | CGCCTCCC | -0.0668
142 | ACTACAGG | -0.116
143 | CAGAGGGC | -0.226
144 | ACTCGGAC | -0.131
145 | ATGACGAA | 0.488
146 | CTACCAGC | -0.103
147 | ACTAAGCT | 0.0583
148 | AGACTGCC | -0.103
149 | CACCACCG | -0.248
150 | CCGTGGGC | -0.0933

Row | Sequence | PBM E-score
151 | AGCCAGTC | -0.286
152 | AGAAGCGG | -0.328
153 | AGTATGAA | 0.0617
154 | AGTTTGAG | -0.148
155 | GCAGTCGC | -0.164
156 | GGCCGTGA | -0.129
157 | ATAGGGGA | -0.197
158 | ATATCATA | 0.307
159 | ATATGCGC | 0.0277
160 | GACGTTGC | 0.313
161 | ATGAGGCA | -0.0537
162 | CTTATAGC | -0.0113
163 | CATCCAAC | 0.164
164 | AGGTACCC | -0.292
165 | AAGTCCCC | -0.279
166 | CATAGTAG | -0.0634
167 | CTATGAGC | -0.121
168 | TAGCTAGA | 0.00313
169 | AAGTACGG | -0.0995
170 | AACCCGGG | -0.241
171 | GAGGGTGA | -0.175
172 | CGGCACCG | -0.247
